# Measurements taken from PubChem BioAssay (NCATS).
# The shares of active, inactive and inconclusive entries below differ from those in the screen. Where a call stands in place of a potency, no number is given. For part of these data: Potencies beside an inconclusive call are fits to weak or partial responses and may not hold up. Activity calls are given as the source filed them. Unless noted, the call rests on the fitted dose curve; in most records, active means well fitted curve in the direction sought with a large enough effect; inconclusive means small, poorly fitted or top-dose-only effect, or another doubt; inactive means no such curve, though single readings can be large; an effect the other way counts as inactive or inconclusive.
# How the values were obtained:
# [1] = P-glycoprotein substrates identified in KB-8-5-11 adenocarcinoma cell line, qHTS therapeutic library screen (AID 1346987); conditions: activity change, negative = cytotoxicity: at 44.5 µM (top of the series); further: nearly all actives have a fitted effect of over 65% in size; further: potency means the concentration at half of the fitted maximal effect
# Outline: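 KB-8-5-11, a colchicine-selected P-gp-overexpressing KB-3-1 subline, was grown without colchicine for the assay. Cells were seeded at 500 cells/well, dosed in concentration-response and incubated 72 h at 37 degree C, 5% CO2. Viability was read by CellTiter-Glo luminescence.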
# [2] = tested on: Zika virus NS2B-NS3 protease (unlinked complex); assay: Primary screen GU Rhodamine qHTS for Zika virus inhibitors: Unlinked NS2B-NS3 protease assay (AID 1347159); conditions: Recombinant ZIKV NS2B-NS3 protease, Rhodamine110 substrate fluorescence; activity change, negative = inhibition: at 107 µM (top of the series); further: potency means the concentration at half of the fitted maximal effect; nearly all actives have a fitted effect of over 60% in size
# Outline: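 Noncovalent NS2B hydrophilic domain/NS3 protease complex (25 nM final) in 10 mM Tris-HCl pH 8.0, 0.01% Tween 20, preincubated 15 min with compounds (up to 114 microM), then 1.5 microM Rhodamine110 substrate. Fluorescence change over 15 min fitted to 4-parameter Hill.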
# [3] = Primary qHTS for inhibitors of nuclear receptor binding SET domain protein 2 (NSD2) in an isogenic RCH-ACV NSD2 p.E1099K mutant (9B) (AID 1645876); conditions: activity change, negative = viability loss: at 44.9 µM (top of the series) unless noted; further: nearly all actives have a fitted effect of over 70% in size; further: potency means the concentration at half of the fitted maximal effect
# [4] = Primary qHTS for inhibitors of nuclear receptor binding SET domain protein 2 (NSD2) in an RCH-ACV wild type WT cells (2C) (AID 1645877); conditions: activity change, negative = cell killing: at 44.9 µM (top of the series) unless noted; further: nearly all actives have a fitted effect of over 70% in size; further: potency means the concentration at half of the fitted maximal effect
# [5] = target: Glutathione peroxidase 1 (Homo sapiens) (UniProt P07203); assay: Primary qHTS Assay for Inhibitors of Recombinant Selenoprotein Glutathione Peroxidase 1 (GPX1) (AID 1845191); further: potency means the concentration at half of the fitted maximal effect; nearly all actives have a fitted effect of over 65% in size
# Chain of UniProt P07203 (P07203 whole entry, looked up): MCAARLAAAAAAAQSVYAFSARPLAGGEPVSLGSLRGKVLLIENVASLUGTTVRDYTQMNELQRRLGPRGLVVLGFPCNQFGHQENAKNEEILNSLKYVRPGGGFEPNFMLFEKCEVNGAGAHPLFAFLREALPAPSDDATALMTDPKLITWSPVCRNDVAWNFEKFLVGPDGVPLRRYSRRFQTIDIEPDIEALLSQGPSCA
# Outline: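 10 nM GPX1 + cpd, 30 min RT; start w/ 1 mM GSH, 0.5 mM cumene hydroperoxide, 0.5 mM NADPH, 100 nM GR, 0.01% BSA; buffer 50 mM Tris-HCl pH 7.5, 2 mM EDTA, 150 mM NaCl; Fl 340/450, 0 & 15 min.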
# [6] = Primary fluorescence-based thiol-reactive (MSTI) qHTS assay for identification of artifact compounds. (AID 1845221); further: potency means the concentration at half of the fitted maximal effect;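 further: thiol-reactive compounds lower the probe fluorescence signal; nearly all actives have a fitted effect of over 65% in size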
# Outline: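 MSTI probe at 4 uM final in 2% DMSO/PBS pH 7.4; compounds, 1 h at room temperature in dark. Fluorescence Ex/Em 525/598 nm, normalised to Acetyl-MSTI and MSTI, fitted to 4-parameter Hill.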
# [7] = Primary redox qHTS assay for identification of artifact compounds. (AID 1845223); further: potency means the concentration at half of the fitted maximal effect
# Outline: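 Amplex Red (25 uM) and HRP (250 mU/mL) in HBSS, with compounds for 15 min, then 250 uM DTT for 30 min, room temperature, dark. Fluorescence 525/598 nm read; normalized to DMSO and 10 uM DA3003; Hill fit.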
# Tov-21-G = assay: Primary qHTS to identify gynecologic anti-cancer compounds using libraries of approved drugs and bioactive compounds (AID 1345084); conditions: Gynecologic cancer cell panel viability, ATPlite luminescence, 48 h; series mostly up to 57.5 µM; further: nearly all actives have a fitted effect of over 55% in size
# Outline: (§1)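 Cells, 1,000 per well, plated 16 h, then exposed 48 h at 37 C to compounds. Viability by ATPlite luminescence after 15 min at room temperature.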
# [8] = target: Calcium and integrin-binding protein 1 (Homo sapiens) (UniProt Q99828); assay: Primary qHTS for Identification of Calcium Integrin Binding Protein 1 (CIB1) Competitor (AID 1508620);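 further: GST tagged CIB1 binding a fluorescein labelled alphaIIb integrin peptide tracer; top concentration of the series differs between compounds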
# Chain of UniProt Q99828 (Q99828 whole entry, looked up): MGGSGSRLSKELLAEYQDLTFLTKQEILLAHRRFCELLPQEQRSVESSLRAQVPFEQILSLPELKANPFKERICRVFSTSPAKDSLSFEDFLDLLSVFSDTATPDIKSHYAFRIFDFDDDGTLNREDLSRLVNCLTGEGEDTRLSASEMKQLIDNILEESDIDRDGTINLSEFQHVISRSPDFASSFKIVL
# Outline: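 CIB1-GST (1 uM final) and compound incubated 15 min at room temperature before adding FITC-alphaIIb peptide tracer (100 nM final). Competition for binding read by fluorescence polarization (ex 480, em 540) after another 15 min at room temperature.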
# [9] = target: Cytochrome P450 2D6 (Homo sapiens) (UniProt P10635); assay: Cytochrome P450 family 2 subfamily D member 6 (CYP2D6) small molecule antagonists: luciferase biochemical (cell-free) qHTS assay (AID 1645840; active means well fitted curve in the direction sought with a large enough effect in the repeat runs; inconclusive means weak or mixed curves; inactive means no such curve, though single readings can be large; an effect the other way counts as inactive or inconclusive; further: nearly all actives have a fitted effect of over 55% in size; further: potency means the concentration at half of the fitted maximal effect)
# Chain of UniProt P10635 (P10635 whole entry, looked up): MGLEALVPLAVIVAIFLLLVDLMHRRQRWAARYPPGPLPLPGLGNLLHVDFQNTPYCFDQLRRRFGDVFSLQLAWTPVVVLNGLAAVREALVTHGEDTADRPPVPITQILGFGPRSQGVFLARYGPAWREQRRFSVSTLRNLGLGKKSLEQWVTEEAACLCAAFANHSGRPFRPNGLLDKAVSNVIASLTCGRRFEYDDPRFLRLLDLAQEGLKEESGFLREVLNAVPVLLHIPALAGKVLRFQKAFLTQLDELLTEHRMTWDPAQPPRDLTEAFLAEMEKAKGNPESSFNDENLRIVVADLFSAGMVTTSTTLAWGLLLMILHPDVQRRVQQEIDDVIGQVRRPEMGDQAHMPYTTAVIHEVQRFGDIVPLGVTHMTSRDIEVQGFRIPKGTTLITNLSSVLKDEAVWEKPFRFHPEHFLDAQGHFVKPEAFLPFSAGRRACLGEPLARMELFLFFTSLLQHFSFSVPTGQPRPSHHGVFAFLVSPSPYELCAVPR
# Outline: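 P450-Glo luminescent screen: recombinant CYP2D6 enzyme–proluciferin substrate mix preincubated with compound 10 min at room temperature, then NADPH regeneration added for 1 h at room temperature. Detection reagent added for 20 min; luciferin light read as relative luminescence units.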
# [10] = target: Phospholipid hydroperoxide glutathione peroxidase GPX4 (Homo sapiens) (UniProt P36969); assay: Primary qHTS Assay for Inhibitors of Recombinant Selenoprotein Glutathione Peroxidase 4 (GPX4) (AID 1845192); conditions: activity change, negative = inhibition: at 50 µM (top of the series) unless noted; further: nearly all actives have a fitted effect of over 65% in size
# Chain of UniProt P36969 (P36969 whole entry, looked up): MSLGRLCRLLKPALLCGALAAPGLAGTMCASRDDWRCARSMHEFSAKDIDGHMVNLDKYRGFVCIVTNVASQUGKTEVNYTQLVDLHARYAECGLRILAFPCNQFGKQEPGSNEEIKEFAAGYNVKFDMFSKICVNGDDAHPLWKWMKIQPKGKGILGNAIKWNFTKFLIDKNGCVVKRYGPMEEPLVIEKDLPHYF
# Outline: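 NADPH consumption, followed by fluorescence at 340/450 nm between 0 and 15 min, reports GPX4 activity via coupled glutathione reductase (100 nM). Enzyme 200 nM was pre-exposed to compound 30 min; 0.5 mM cumene hydroperoxide and 1 mM GSH served as substrates.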
# Tov112D = assay: Primary qHTS to identify gynecologic anti-cancer compounds using libraries of approved drugs and bioactive compounds (AID 1345084); conditions: Gynecologic cancer cell panel viability, ATPlite luminescence, 48 h; series mostly up to 57.5 µM; further: nearly all actives have a fitted effect of over 55% in size
# Outline: as §1
# Tags describe the fitted curve by direction and shape.
smiles,measurement,setting,value
COC(=O)[C@H](c1ccccc1Cl)N1CCC2SC(=O)C=C2C1 (stereo not given in full),Potency,[1],inactive
same,Potency,[2],"inconclusive: 15.8 µM [inhibitor, single point]"
same,Potency,[3],"inconclusive: 16.3 µM [inhibitor, partial curve, poor fit]"
same,Potency,[4],"inconclusive: 32.5 µM [inhibitor, partial curve, poor fit]"
same,Potency,[5],active: 8.06 µM
same,Potency,[6],"inconclusive: 10.6 µM [inhibitor, single point]"
same,Potency,[7],"inconclusive: 33.6 µM [activator, partial curve, poor fit]"
same,Potency,Tov-21-G,inactive
COc1ccc(CCc2nc3cc(-c4c(C)noc4C)ccc3n2C[C@H](C)N2CCOCC2)cc1Cl,Potency,[1],"inconclusive: 20.6 µM [inhibitor, single point]"
same,Potency,[8],inactive
same,Potency,[9],"inconclusive: 26.8 µM [inhibitor, single point]"
same,Potency,[4],active: 2.58 µM
same,Potency,[10],inactive
same,Potency,Tov112D,inactive
CC(O)/C=C/C1(O)C(C)C(O)C(O[C@@H]2O[C@H](CO)[C@@H](O)[C@H](O)[C@H]2O)CC1(C)C (stereo not given in full),Potency,[2],"inconclusive: 35.5 µM [inhibitor, single point]"
same,Potency,[6],"inconclusive: 10.3 µM [inhibitor, partial curve]"
same,Potency,Tov-21-G,inactive
COc1ccc(NC(=O)c2ccc(-c3ccc(C(N)=O)cc3C)cc2)cc1N1CCN(C)CC1,Potency,[1],inactive
same,Potency,[9],inactive
same,Potency,[3],"inconclusive: 29 µM [inhibitor, single point]"
same,Potency,[4],active: 14.5 µM
same,Potency,Tov-21-G,inactive
O=C1Nc2ccc(O)cc2O[C@H]1O[C@@H]1O[C@H](CO)[C@@H](O)[C@H](O)[C@H]1O,Potency,[3],inactive
same,Potency,[6],"inconclusive: 7.36 µM [inhibitor, partial curve]"
same,Potency,[7],inactive
same,Potency,Tov-21-G,inactive
CCCC(N[C@@H](C)C(=O)N1[C@H](C(=O)O)C[C@@H]2CCCC[C@@H]21)C(=O)OCC (stereo not given in full),Potency,[3],inactive
same,Potency,[4],inactive
same,Potency,[6],inactive
same,Potency,Tov-21-G,inactive
